Measured values taken from publication PMC12135187, “A role for pH dynamics regulating transcription factor DNA-binding selectivity”.
The list shows a part of the results.

Target: T1, FOXC2 DBD WT (UniProt Q99958 72-172)
T1 sequence: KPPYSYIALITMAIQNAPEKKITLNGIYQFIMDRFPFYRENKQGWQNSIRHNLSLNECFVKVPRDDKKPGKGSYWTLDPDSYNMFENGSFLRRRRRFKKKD
Assay: SELEX-seq (GST pull-down, four rounds, 16-nt random library); pH 7.0; 20 mM HEPES, 140 mM KCl, 0.05 mM TCEP-HCl, pH 7.0, room temperature, 30 min; 2.5 uM GST-FOXC2 DBD, 0.25 uM DNA library; high values mean tight binding
Conditions: protein: recombinant; tags: N-terminal GST (pGEX-6P-2); dsDNA, one strand shown
Method in brief: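 GST-tagged FOXC2 DNA-binding domain (E. coli-expressed, glutathione-purified) was incubated with a DNA library carrying a 16 bp randomized region, at 0.25 μM DNA and 2.5 μM protein, for 30 min at RT in 20 mM HEPES, 140 mM KCl, 0.05 mM TCEP–HCl, pH 7. Complexes were captured on glutathione Sepharose beads, washed, heat-eluted and PCR-amplified over four rounds. Initial and selected libraries were Illumina MiniSeq sequenced. Relative enrichment came from the Bioconductor SELEX R package.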

Row | Sequence | binding signal [relative enrichment]
1 | AGGAAA | 0.351
2 | ATAAGG | 0.316
3 | AAAGCC | 0.356
4 | TTTAAA | 0.223
5 | CCGTTA | 0.306
6 | ATTCAC | 0.416
7 | TACGTC | 0.674
8 | AACTCC | 0.458
9 | ATTGAC | 0.424
10 | AAGTCT | 0.462
11 | ATACAA | 0.363
12 | TTCTCT | 0.453
13 | CCAACA | 0.292
14 | TGCAAA | 0.311
15 | ACTCAC | 0.426
16 | ACAGCA | 0.332
17 | TAACGC | 0.263
18 | ATGTTC | 0.304
19 | CATCCC | 0.704
20 | TCATTC | 0.646
21 | TGATAA | 0.425
22 | ATGAAT | 0.377
23 | ATCTCC | 0.613
24 | TCTTTC | 0.55
25 | AAGCTT | 0.343

Row | Sequence | binding signal [relative enrichment]
26 | GTATTA | 0.304
27 | TCACTA | 0.459
28 | ATTTTC | 0.424
29 | TATGCC | 0.417
30 | CATTAA | 0.286
31 | GGTTTA | 0.395
32 | ACTCAT | 0.359
33 | AATCAG | 0.409
34 | AACTGA | 0.259
35 | TTCAAA | 0.282
36 | CCTAAC | 0.341
37 | TTTCCA | 0.332
38 | CACTAA | 0.37
39 | CTACTT | 0.503
40 | CGTCAT | 0.583
41 | ATGAAA | 0.388
42 | CATAGA | 0.42
43 | CGTCAA | 0.451
44 | TAAACA | 0.701
45 | ACATGT | 0.276
46 | ACTACG | 0.563
47 | TCTCTA | 0.45
48 | AATTAA | 0.385
49 | ATTTAG | 0.452
50 | GTACAA | 0.338

Row | Sequence | binding signal [relative enrichment]
51 | AAAACC | 0.202
52 | GTTATA | 0.37
53 | ATCTTA | 0.332
54 | CACAAC | 0.243
55 | GATAAC | 0.289
56 | CTAGTA | 0.562
57 | CTCATA | 0.365
58 | CCACAA | 0.292
59 | CTAACT | 0.332
60 | AATATA | 0.31
61 | GCTTTA | 0.43
62 | GATATA | 0.288
63 | TACTCC | 0.566
64 | ACTAAG | 0.424
65 | AATGAC | 0.348
66 | TCTTAA | 0.293
67 | TCTTAG | 0.504
68 | CACATA | 0.33
69 | TCCTAT | 0.313
70 | AAGATG | 0.434
71 | CCTTCT | 0.774
72 | CATATC | 0.341
73 | CCTGTA | 0.318
74 | GAATAC | 0.453
75 | CACTGC | 0.574

Row | Sequence | binding signal [relative enrichment]
76 | ACCCTT | 0.488
77 | AATAGA | 0.411
78 | TTCTTC | 0.673
79 | CTTTAA | 0.3
80 | CTATAC | 0.247
81 | GTCAAC | 0.379
82 | CAATTC | 0.306
83 | CGCAAA | 0.339
84 | CACCAA | 0.346
85 | ATTGTG | 0.307
86 | CCCGTT | 0.334
87 | ACGTTG | 0.237
88 | ATTGCC | 0.483
89 | AATCAA | 0.343
90 | AATTTA | 0.211
91 | GCATAA | 0.415
92 | CGCGTT | 0.435
93 | ACCAAA | 0.367
94 | AGTTTA | 0.403
95 | AAACAT | 0.385
96 | ATTATG | 0.368
97 | AATTCC | 0.366
98 | AAATCT | 0.424
